Experimental data: publication PMC6919601, “Identification of Plasmodium dipeptidyl aminopeptidase allosteric inhibitors by high throughput screening” (PLoS ONE, 2019)
In all, about 110,000 compounds went through this assay and about 230 (0.21%) showed an effect of 50% or more. Some of the results follow.

The compounds below were run against DPAP1 (Plasmodium falciparum, UniProt Q8IIJ9) (assay: primary screen, percent inhibition; read by cleavage of a fluorogenic dipeptide substrate; higher = more effect of the substance).
Parameters: species or system P. falciparum D10 trophozoite lysates; single well
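Note: 30 min substrate incubation versus DMSO and 10 µM JCP410 controls.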

Sequence of DPAP1 (Q8IIJ9 whole entry, looked up): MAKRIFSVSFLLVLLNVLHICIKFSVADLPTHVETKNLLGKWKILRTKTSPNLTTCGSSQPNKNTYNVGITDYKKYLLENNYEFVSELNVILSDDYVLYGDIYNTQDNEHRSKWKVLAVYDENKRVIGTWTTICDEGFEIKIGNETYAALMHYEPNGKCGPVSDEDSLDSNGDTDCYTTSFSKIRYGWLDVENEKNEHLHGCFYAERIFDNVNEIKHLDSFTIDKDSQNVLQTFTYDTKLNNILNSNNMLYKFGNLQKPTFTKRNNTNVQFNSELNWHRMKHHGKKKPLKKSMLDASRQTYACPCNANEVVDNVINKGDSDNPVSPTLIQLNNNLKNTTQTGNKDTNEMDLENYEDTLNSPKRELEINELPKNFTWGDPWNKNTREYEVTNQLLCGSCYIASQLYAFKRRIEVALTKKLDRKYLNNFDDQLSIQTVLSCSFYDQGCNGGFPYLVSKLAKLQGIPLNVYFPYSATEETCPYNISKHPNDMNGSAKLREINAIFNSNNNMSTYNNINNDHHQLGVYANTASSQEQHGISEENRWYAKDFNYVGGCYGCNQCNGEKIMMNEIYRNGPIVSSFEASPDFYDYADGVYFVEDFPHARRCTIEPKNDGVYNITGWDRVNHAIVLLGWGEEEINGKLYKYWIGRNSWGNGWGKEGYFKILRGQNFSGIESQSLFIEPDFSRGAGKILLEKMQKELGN

Structure (SMILES) | % Inhibition @ 10 uM
C=CCn1c(SCC(=O)NC(N)=O)nc2sc3c(c2c1=O)CCC3 | 2.68%
CC1(C)CC(N2C(=O)c3ccccc3C2=O)CC(C)(C)N1 | -1.82%
COc1cc(-c2c(C(=O)O)nc3ccccc3c2C(=O)O)cc(OC)c1OC | 17.1%
CC1Cc2c([nH]c3ccccc23)C(C)N1 (centres unmarked) | -1.64%
CCOc1ccc(/C=C2\N=C(c3ccc(Cl)cc3Cl)OC2=O)cc1 | -2.41%
Fc1cccc(Cl)c1C1C=C(c2ccc(Br)s2)Nc2ncnn21 (centres unmarked) | -5.05%
CCOc1ccc(NC(=O)c2ccc(C(C)(C)C)cc2)cc1 | -3.43%
COc1cccc(/C=C2\S/C(=N/c3ccc(Cl)cc3)N(C)C2=O)c1OCC(=O)O | -4.15%
CC(C)(C)NC(=O)CN(c1ccc2c3c(cccc13)CC2)S(C)(=O)=O | -0.949%
N#CC1=C(N)OC2=C(C(=O)c3ccccc3C2=O)C1c1cccs1 (centres unmarked) | 5.45%
CC1CN(c2ccccc2[N+](=O)[O-])CCN1 (centres unmarked) | -1.91%
CCCS(=O)(=O)N1CCN(C(=O)c2cccc(OC)c2OC)CC1 | -3.06%
O=C(NCCCN1CCOCC1)C1CCCN(c2ncnc3c2sc2cccc(F)c23)C1 (centres unmarked) | 2.65%
CCC(=O)Nc1c(C(=O)N(C)Cc2ccco2)cnn1-c1ccccc1Cl | -2.98%
CC1(C)CC1(C#Cc1ccccc1)C(=O)O (centres unmarked) | -4.98%
COc1ccc(/C(C)=N/OCC(=O)Nc2sc3c(c2C#N)CCCC3)cc1OC | 1.96%
COC(=O)c1ccccc1-c1ccc(/C=C2/C(=N)N3N=C(CC(C)C)SC3=NC2=O)o1 | -1.26%
CC1=CC(C)(C)N(CC(=O)c2ccc([N+](=O)[O-])cc2)c2ccccc21 | -0.693%
O=C(CCn1c(=O)c2cccn2c2cccnc21)NCCc1ccc(Cl)cc1 | 4.65%
CCOc1ccc(-n2nnc(-c3nsc(NC(=O)c4ccccc4Cl)n3)c2C)cc1 | 7.25%
Cc1cc(C)c(C(=O)NCC2CCCO2)c(C)c1 (centres unmarked) | -2.86%
CCOc1ccc(C2C(C(=O)Nc3ccc(F)cc3)=C(C)Nc3ncnn32)cc1OC (centres unmarked) | 4.67%
CC(=O)Nc1ccc(C(=O)Nc2cccc(Cl)c2Cl)cc1 | 3.03%
c1coc(-c2nnc3n2C2(CCCC2)Cc2ccccc2-3)c1 | 5.32%
O=C(CN1CC(c2ccccc2)CC1=O)Nc1cccc2ccccc12 (centres unmarked) | -3.71%
CCOC(=O)CCS(=O)(=O)c1ccc2ccccc2c1 | -0.25%

Structure (SMILES) | % Inhibition @ 10 uM
CC(Oc1ccc(C(C)C)cc1)C(=O)N(Cc1ccco1)C1CCS(=O)(=O)C1 (centres unmarked) | 0.569%
CCN1CCN(Cc2ccoc2)CC1 | 4.57%
CC(C)CN(CCNC(=O)CN1N=C(c2ccccc2)CCC1=O)CC(C)C | 1.97%
CCc1nnc(NC(=O)CSc2ccc3nnc(-c4ccncc4)n3n2)s1 | 4.84%
Nc1nc(CNS(=O)(=O)c2ccccc2)nn1S(=O)(=O)c1ccccc1 | -0.447%
COc1ccccc1NC(=O)/C=C/c1ccc(C(C)C)cc1 | 6.25%
Cc1cc(C(=O)NC2CCCCC2)c2c(C)nn(-c3cccc(F)c3)c2n1 | -1.52%
O=C(Cn1ccc2cc(S(=O)(=O)N3CCCC3)ccc21)NC1CCCc2ccccc21 (centres unmarked) | 2.79%
Cc1ccc(C(=O)C2=C(O)C(=O)N(c3ccccn3)C2c2ccc(F)cc2)cc1 (centres unmarked) | -4.18%
COC(=O)C1=C(C)N=C(C)/C(=C(/O)OC)C1c1ccc(C)o1 (centres unmarked) | -3.74%
CC(C)Cc1ccc(-c2csc(N)n2)cc1 | 3.44%
Cc1cc(C(=O)O)[nH]n1 | 4.61%
CCCOc1ccc(C(CC(=O)O)NC(=O)c2cc(Cl)ccc2Cl)cc1 (centres unmarked) | 4.32%
Cc1oc2cc3oc(=O)c(CCC(=O)N4CCCC4)c(C)c3cc2c1C | 4.13%
O=C(C1=C(O)C(=O)N(CCc2c[nH]c3ccccc23)C1c1ccccn1)c1ccccc1 (centres unmarked) | -1.17%
Cc1ccc(S(=O)(=O)N(CC(=O)N2CCOCC2)c2cccc(Cl)c2C)cc1 | 0.235%
CC(C)Cn1cc(C(=O)NC(C)CCc2ccccc2)c2c3ccccc3n(C)c2c1=O (centres unmarked) | 3.55%
CCO/C(O)=C(\C#N)C1=NCCC1 | 2.17%
COc1cc(-c2nc(S)c3c(n2)Oc2ccccc2C3)cc(OC)c1OC | 0.54%
CCOCCCNC(=O)Cn1sc2nc(C)cc(C)c2c1=O | -1.21%
COc1ccc(Br)c(C2C(C#N)=C(N)Oc3[nH]c(C)nc32)c1 (centres unmarked) | 3.65%
CCOc1ccc(S(=O)(=O)N(C)Cc2cc3ccccc3o2)cc1 | 9.38%
COc1cc(C2c3c(-c4ccccc4O)n[nH]c3C(=O)N2CCCO)ccc1OCc1ccccc1 (centres unmarked) | 3.62%
O=C(Cn1ncc2c3ccccc3nc-2c1O)NCc1ccccn1 | -1.96%
COc1ccc(S(=O)(=O)N2CCC(NC(=O)NCCCO)CC2)cc1 | -0.946%
CC(C)Cn1cc(NC(=O)NCc2ccco2)c2ccccc2c1=O | -4.4%

Structure (SMILES) | % Inhibition @ 10 uM
Cc1nnc(NC(=O)c2c(O)nc3ccccc3c2O)s1 | -2.05%
Cc1cccc2sc(NC(=O)C3CCN(S(=O)(=O)c4c[nH]cn4)CC3)nc12 | -0.499%
Cc1cccc(NC(=O)CN2C(=O)N/C(=C/c3ccccc3)C2=O)c1 | -16%
Cc1c(C(=O)N2CCC(C(N)=O)CC2)sc(N)c1C#N | -0.436%
O=C(Nc1ccccc1N1CCOCC1)c1ccc(Cl)c(Cl)c1 | -5.92%
Nn1cnnc1SCc1ccccc1 | -3.06%
CC(C)CNC(=O)c1cccc2c1-c1ccccc1C2=O | 2.57%
CCCCCOC(=O)NC1CCS(=O)(=O)C1 (centres unmarked) | -2.44%
CCOC(=O)c1c(O)c(O)nc2ccccc12 | 0.992%
Cc1ccc2nc(C(=O)O)c(C(=O)O)nc2c1 | -3.33%
O=C(Cn1nnc(-c2ccc(OCc3ccccc3Cl)cc2)n1)NC1CCCC1 | 1.32%
c1ccc(C(c2ccccc2)n2nnnc2C2(N3CCCC3)CCCCC2)cc1 | -2.42%
Nc1cc2cccnc2c2ncccc12 | -4.61%
C=CCNc1nc(-c2ccc(F)cc2F)cs1 | 5.31%
Cc1ccc2nc(NC(=O)c3c(O)nc4ccccc4c3O)sc2c1 | 1.86%
Cc1cc(C)cc(C(=O)N(CCc2ccccc2)C2=CC3CCC(C2)N3C)c1 (centres unmarked) | -5.08%
CC1CCCC(C)N1c1nnc(N)s1 (centres unmarked) | 4.61%
CC(C)(C)C(=O)Nc1ccc(C(=O)Nc2ccc(C(=O)O)cc2)cc1 | 0.67%
CCC1CCc2c(sc(N)c2C(N)=O)C1 (centres unmarked) | 12.1%
CCOC(=O)N1CCN(C(=O)c2cc3c(s2)-c2ccccc2S(=O)(=O)C3)CC1 | -7.72%
N#C/C(=C\c1ccc(-c2ccc(Cl)cc2)o1)S(=O)(=O)c1ccccc1 | 15.9%
COc1ccc(OC)c(CCNC(=O)CCc2c(C)nc3c(-c4ccc(F)cc4)c(C)nn3c2C)c1 | 1.26%
CC1(C)Cc2c(c(N3CCOCC3)nc3sc(C#N)c(N)c23)CO1 | -0.85%
CCCC[C@H](NC(=O)c1cccc(N)c1)C(=O)NCC#N | -3.49%
N#C/C(=C/C=C/c1ccccc1)c1nc(-c2cc3cc(Br)ccc3oc2=O)cs1 | 7.04%
CC1CN(C)C(c2ccccc2)CC1(O)c1ccccc1 (centres unmarked) | -1.76%

Structure (SMILES) | % Inhibition @ 10 uM
O=C1CC(Cc2ccccc2)C(=O)N1CCOC12CC3CC(CC(C3)C1)C2 (centres unmarked) | -2.19%
Cc1c(C(=O)O)oc2ccc(S(=O)(=O)NCCc3ccccc3)cc12 | -0.519%
CSCCC(Nc1ncnc2ccccc12)C(=O)O (centres unmarked) | -11.7%
COC(=O)C1=C(C)NC(=O)CC1c1ccc2c(c1)OCO2 (centres unmarked) | -3.32%
Cc1ccc2nc3c(O)n(C)nnc-3c2c1 | -7.19%
Cc1nc2c(C(=O)N3CCc4ccccc4C3)cnn2c(O)c1Cc1ccc(F)cc1Cl | -5.52%
COc1cc(CNCCSc2nnnn2-c2ccccc2)cc(OC)c1OC | -4.71%
Cc1cccc(C2=N/C(=C\c3cccc4ccccc34)C(=O)O2)c1 | -0.769%
CN(C)/C=C1/N=C(c2ccccc2)c2cc(Cl)ccc2N(C)C1=O | -1.42%
O=C1CC(c2ccccc2)=NN1c1nc(-c2ccccc2)cc(-c2ccc(F)cc2)n1 | -5.11%
CCc1ccc2c(Cl)c(C(=O)NCc3ccncc3)sc2c1 | 0.343%
COc1ccc(CNc2cc(-c3ccccc3)nc3nncn23)cc1 | -2.57%
CCOc1ccc(Nc2nc(-c3ccc(CC(C)C)cc3)cs2)cc1 | -5.92%
Cc1ccc(N2CCn3c2cc(C)c(C#N)c3=O)cc1C | -5.07%
Cc1ccc(S(=O)(=O)c2nc(S(C)(=O)=O)sc2NC(C)c2ccccc2)cc1 (centres unmarked) | 1.15%
COc1ccc(NC(=O)c2c(Cl)cnn2C)c(C)c1 | 2.38%
O=S1(=O)N=C(Oc2ccc(Cl)cc2)c2ccccc21 | -0.884%
O=C(Cn1ncn2c(cc3ccccc32)c1=O)NCCc1cccs1 | 1.68%
COc1cc2c(cc1OC)C(c1ccccc1C(F)(F)F)CC(=O)N2 (centres unmarked) | -5.23%
Cc1ccc(C)c(NC(=O)c2ccccc2[N+](=O)[O-])c1 | -1.48%
COc1ccc(/N=C2\CCCN2C(=O)Nc2cccc(Cl)c2)cc1 | 2.01%
Cn1c2c(c(=O)n(C)c1=O)C(c1cc(Cl)ccc1Cl)C1=C(O)c3ccccc3C1=N2 (centres unmarked) | 7.1%
COc1ccccc1-c1cc(C(=O)Nc2cnn(Cc3ccc(Cl)cc3Cl)c2)no1 | 10.2%
